Among the data in PubChem BioAssay AID360 (National Center for Advancing Translational Sciences (NCATS), 2006) are Potency values, retold here.

The campaign covered roughly 48,000 compounds. About 550 (1.1%) were called active. About 4% were inconclusive and are not listed. Cut-off read from the data, not from the text of the source: active = potency below about 15 µM; inconclusive = mostly about 16 µM to 33 µM; inactive = weaker than that. This is one part of the list. Some results are limits rather than exact numbers.
Potency is the fitted concentration of half-maximal effect.

The target in the experiment is Lysosomal acid glucosylceramidase (Homo sapiens) (UniProt P04062). Description: Glucocerebrosidase.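 Note: the screen sought inhibitors.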 To be noted: purified enzyme, resorufin glucoside fluorescence (screen aimed at inhibitors), 20 min. In outline: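 Wild-type enzyme at 0.2 nM final in 50mM citric acid/KH2PO4, 10mM sodium taurocholate, 0.01% tween-20, pH 5.9, with resorufin beta-D-glucopyranoside at 30 uM final. Compounds titrated, 20 min at RT, red fluorescence read; AC50 from titration.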
UniProt P04062, sequence (P04062 whole entry, looked up): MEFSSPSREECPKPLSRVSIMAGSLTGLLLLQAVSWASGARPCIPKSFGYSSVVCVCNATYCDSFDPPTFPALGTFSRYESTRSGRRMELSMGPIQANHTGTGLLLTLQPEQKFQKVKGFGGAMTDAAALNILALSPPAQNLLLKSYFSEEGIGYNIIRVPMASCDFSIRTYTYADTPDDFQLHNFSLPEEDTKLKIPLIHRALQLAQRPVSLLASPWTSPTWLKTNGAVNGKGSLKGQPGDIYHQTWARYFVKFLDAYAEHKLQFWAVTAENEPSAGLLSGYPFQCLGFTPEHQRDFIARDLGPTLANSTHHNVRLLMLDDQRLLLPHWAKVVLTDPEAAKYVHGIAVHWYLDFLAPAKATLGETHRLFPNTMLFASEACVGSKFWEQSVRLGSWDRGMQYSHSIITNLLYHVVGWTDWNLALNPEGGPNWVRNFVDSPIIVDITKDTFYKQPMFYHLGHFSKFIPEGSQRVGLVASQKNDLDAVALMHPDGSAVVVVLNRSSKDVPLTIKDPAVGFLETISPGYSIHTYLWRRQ
In the case of `Cc1nn2c(CN(C(=O)c3ccco3)c3ccccc3)nnc2c2ccccc12`, the Potency was inactive: > 76.9 µM.

For the compound `CC(C)C(NS(=O)(=O)c1ccc(Br)s1)C(=O)O` (stereo unspecified), the Potency is inactive: > 76.9 µM.

With `Cn1c(COc2ccccc2)nnc1SCc1cc(=O)[nH]c2ccccc12`, the Potency is inactive: > 76.9 µM. For the compound `COc1cccc(N2CCN(CC(=O)NCc3cccs3)CC2)c1`, the Potency was inactive: > 76.9 µM.

On to `CCOc1ccc(C(=O)CN2CCN(S(=O)(=O)c3ccc(Cl)cc3)CC2)cc1`, for which the Potency is inactive: > 76.9 µM. With `O=C(O)c1ccccc1C(=O)N1CCN(c2cccc(Cl)c2)CC1`, the Potency was inactive: > 76.9 µM. As for `Cc1ccc(-n2c(Cn3cnc4ccccc43)nnc2SCC(=O)O)cc1`, the Potency is inactive: > 76.9 µM.

Take `CCOC(=O)C1CCN(Cc2nc3ccc(Cl)cc3n2CCO)CC1`: the Potency is inactive: > 76.9 µM.

Turning to `CN(C)/C=N/c1ncnc2c1cnn2-c1ccc(C(F)(F)F)cn1`, the Potency is inactive: > 76.9 µM. With `Cc1ccc2nc(NC(=O)C3CCN(S(=O)(=O)c4cccc5nsnc45)CC3)sc2c1`, the Potency was inactive: > 76.9 µM. With `COCC(=O)Nc1ccccc1NC(C)=O`, the Potency is inactive: > 76.9 µM. `O=S(=O)(Nc1ccc(S(=O)(=O)N2CCCCC2)cc1)c1cccs1`: the Potency is inactive: > 76.9 µM.

Turning to `CCN(c1cccc(C(F)(F)F)c1)S(=O)(=O)c1ccc2c(c1)CCN2C(=O)C1CC1`, the Potency was inactive: > 76.9 µM. Regarding `CCN(CC)CCCN1C(=O)c2oc3ccccc3c(=O)c2C1c1cc(OC)ccc1OC` (stereo unspecified), the Potency was inactive: > 76.9 µM.

Regarding `CCOC(=O)CSc1nc2ccsc2c(=O)n1C1CCN(C(=O)OCC)CC1`, the Potency was inactive: > 76.9 µM.

For `Cc1ccc(N2C(=O)c3n[nH]c(C)c3C2c2cccnc2)cc1` (stereo unspecified), the Potency is inactive: > 76.9 µM.

`CCOC(=O)N1CCN(C(=O)c2ccccc2CCc2ccccc2)CC1`: the Potency is inactive: > 76.9 µM.

Take `COc1ccc(S(=O)(=O)Nc2nncs2)cc1`: the Potency is inactive: > 76.9 µM. With `Cc1nc(Nc2ccncc2)c2oc3ccccc3c2n1`, the Potency is inactive: > 76.9 µM.

`Cc1occc1C(=O)Nc1ccc2c(c1)OCO2`: the Potency was inactive: > 76.9 µM. As for `c1ccc(Cn2nnc3c(N4CCC5(CC4)OCCO5)ncnc32)cc1`, the Potency was inactive: > 76.9 µM. The same measure for `CCOC(=O)c1ccc(NC2c3ncccc3C(=O)N2Cc2ccc(F)cc2)cc1` (stereo unspecified): inactive: > 76.9 µM; for `O=C(NCc1cccnc1)c1cccc2c1C(=O)N(C1CCCCC1)C2`: inactive: > 76.9 µM. Consider `CCCCOc1ccc(C(=O)NC)cc1`, for which the Potency was inactive: > 76.9 µM. On to `O=C(OCC(=O)N1CCN(C(=O)c2ccco2)CC1)c1sc2cc(F)ccc2c1Cl`, for which the Potency was inactive: > 76.9 µM.

For `Cc1cccc(NC(=O)CSc2nnc(-c3ccccc3Br)o2)c1C`, the Potency was inactive: > 76.9 µM. On to `COCC(=O)Nc1cc(OC)ccc1OC`, for which the Potency was inactive: > 76.9 µM. For the compound `CC(/C=N/n1cnnc1)=C\c1ccco1`, the Potency was inactive: > 76.9 µM.

On to `CCS(=O)(=O)N1CCC(C(=O)NCCCN2CCCC2)CC1`, for which the Potency is inactive: > 76.9 µM.

As for `COc1ccc(C)cc1S(=O)(=O)N(C)CC(=O)N1CCCCCC1`, the Potency is inactive: > 76.9 µM. `Nn1c(SCC(=O)NCc2ccccc2)nnc1C1CC1`: the Potency was inactive: > 76.9 µM. On to `COCCNC(=O)Cn1nc(-c2ccccc2OC)ccc1=O`, for which the Potency is inactive: > 76.9 µM. For the compound `CC1(C)Cc2c(C#N)c(N)n(-c3ccccc3)c(=O)c2CO1`, the Potency was inactive: > 76.9 µM.

For the compound `Cn1cccc1C(=O)c1ccc(Cl)cc1Cl`, the Potency was inactive: > 76.9 µM. The same measure for `O=C(CSc1nnc(Cn2c(=O)sc3ccccc32)n1-c1ccccc1)N1CCOCC1`: inactive: > 76.9 µM; for `O=C(C1Cc2ccccc2CN1S(=O)(=O)c1ccc(F)cc1)N1CCCCCC1` (stereo unspecified): inactive: > 76.9 µM.

`Cc1ccc(C)c(C(=O)CSc2n[nH]c(-c3ccncc3)n2)c1`: the Potency entry was “inactive”. Take `Cc1ccc(-n2c(CSc3nc(C)cc(C)n3)nnc2SCC(=O)NCc2ccco2)cc1`: the Potency is inactive: > 76.9 µM. With `COc1ccc(-n2c(=O)c3ccccc3n(CC(=O)Nc3cc(C)on3)c2=O)cc1OC`, the Potency is inactive: > 76.9 µM. The same measure for `CC(=O)N1CCc2cc(S(=O)(=O)Nc3cccc(C(F)(F)F)c3)ccc21`: inactive: > 76.9 µM.

For `CC(C)n1c(NCc2nc3ccccc3n2C)nc2ccccc21`, the Potency is inactive: > 76.9 µM. For `O=C(C1CCN(S(=O)(=O)c2ccc3c(c2)OCCO3)CC1)N1CCc2ccccc21`, the Potency is inactive: > 76.9 µM. As to `CCCCOC(=O)C1[C@H]2C(=O)N(CCc3ccccc3)C[C@]23C=C[C@H]1O3` (stereo partly specified), the Potency was inactive: > 76.9 µM. For `CCOc1ccc(NC(=O)C2CCC(N3C(=O)C4CC=CCC4C3=O)CC2)cc1` (stereo unspecified), the Potency is inactive: > 76.9 µM. As for `O=C(O)COc1ccc2nsnc2c1Cl`, the Potency was inactive: > 76.9 µM. For `COc1ccc(-c2noc(CCC(=O)Nc3nc4ccccc4s3)n2)cc1`, the Potency was inactive: > 76.9 µM.

As for `Cc1csc(SCC(=O)Nc2nc3ccccc3s2)n1`, the Potency was inactive: > 76.9 µM. The same measure for `CCn1c(=O)[nH]c2cc(C(=O)N3CCN(c4ccccc4)CC3)ccc2c1=O`: inactive: > 76.9 µM; for `CN(Cc1ccccc1)Cc1nc2c(c(=O)n(C)c(=O)n2C)n1Cc1ccc(Cl)cc1`: inactive: > 76.9 µM. The figure for `O=C(NCc1ccco1)c1ccc(N2CCCC2=O)cc1` is inactive: > 76.9 µM. As to `OC1(c2cn(Cc3ccccc3)nn2)CCCCC1`, the Potency is inactive: > 76.9 µM. As to `CCC(C)N1CC(C(=O)NC2CCCCC2)CC1=O` (stereo unspecified), the Potency is inactive: > 76.9 µM.

Consider `O=C(CSC1=NCCS1)Nc1ccnc2ccccc12`, for which the Potency is inactive: > 76.9 µM. The same measure for `N#CCc1ccc(NC(=O)Nc2cccc(Cl)c2)cc1`: inactive: > 76.9 µM; for `CC1CCN(C(=O)CCc2nc3cc(S(=O)(=O)N(C)C)ccc3n2C)CC1`: inactive: > 76.9 µM; for `Cc1ccc2c(c1)N(CCC(=O)NCc1cccnc1)C(=O)CO2`: inactive: > 76.9 µM. Turning to `O=C(c1ccc(S(=O)(=O)N2CCCCC2)cc1)N1CCN(c2ccccc2)CC1`, the Potency is inactive: > 76.9 µM.

Turning to `CCSc1nnc(NC(=O)CSc2nccn2-c2cccc(C)c2C)s1`, the Potency was inactive: > 76.9 µM. The figure for `COc1ccc(N2C(=O)CCC(C(=O)Nc3ccccn3)C2c2ccc(OC)c(OC)c2)cc1` (stereo unspecified) is inactive: > 76.9 µM; for `CCOC(=O)N1CCC(NS(=O)(=O)c2cc(Br)cc3c2N(C(=O)CC)CC3)CC1` it is inactive: > 76.9 µM.

On to `CCOc1cccc(C(=O)Nc2cccc(-c3nnc(-c4ccc(C)cc4)o3)c2)c1`, for which the Potency was inactive: > 76.9 µM. As to `Cc1nc2ccccc2c(=O)n1/N=C/c1ccc(N(C)C)cc1`, the Potency was inactive: > 76.9 µM. The same measure for `O=c1oc2ccc3ccccc3c2cc1-c1nnc(-c2ccccc2)o1`: inactive: > 76.9 µM; for `O=C(O)c1ccc(C(=O)c2ccc3c(c2)C(=O)N(Cc2ccco2)C3=O)cc1`: inactive: > 76.9 µM. In the case of `COc1cc2cc(C)c(SCC(=O)N3CCOCC3)nc2cc1OC`, the Potency is inactive: > 76.9 µM. With `Cc1nc(SCc2ccc(Br)cc2)[nH]c(=O)c1C`, the Potency was inactive: > 76.9 µM. Take `O=C(c1cc2c(=O)n3ccccc3nc2s1)N1CCOCC1`: the Potency was inactive: > 76.9 µM. With `COc1ccc(OC)c(C2C3CN(C(C)C)CC=C3C(C#N)=C(N)C2(C#N)C#N)c1` (stereo unspecified), the Potency is inactive: > 76.9 µM. Consider `CC(=O)c1cccc(NC(=O)CN(c2ccccc2)S(C)(=O)=O)c1`, for which the Potency was inactive: > 76.9 µM. The figure for `Cc1ccc2nc(Cc3ccc(N)cc3)oc2c1` is inactive: > 76.9 µM.

Turning to `Cc1ccc(-c2nnn(CC(=O)N(Cc3ccccc3)C(C(=O)NC(C)(C)C)c3ccncc3)n2)o1` (stereo unspecified), the Potency is inactive: > 76.9 µM. For `CCOC(=O)C(Cc1ccccc1)NC(=O)CCc1c(C)nc2ncnn2c1C` (stereo unspecified), the Potency was inactive: > 76.9 µM.

Turning to `COc1ccc(NC(=O)Nc2nccs2)cc1`, the Potency is inactive: > 76.9 µM. On to `O=C(O)c1ccc(-c2ccccc2Cl)o1`, for which the Potency is inactive: > 76.9 µM.

Consider `CCCCCCn1c(SCCC)nc2c1c(=O)[nH]c(=O)n2C`, for which the Potency was inactive: > 76.9 µM.

In the case of `COc1ccccc1-c1nnc(SCC(=O)O)n1C`, the Potency was inactive: > 76.9 µM. The figure for `COC(=O)C1(C(O)C(=O)c2ccc(C)cc2C)CCCCC1` (stereo unspecified) is inactive: > 76.9 µM; for `CCC(C(=O)Nc1cc(C)nn1-c1nc(C)cc(C)n1)c1ccccc1` (stereo unspecified) it is inactive: > 76.9 µM; for `Cc1nc(NC(=O)c2ccc(Br)s2)sc1C(=O)N(C)C` it is inactive: > 76.9 µM. Turning to `c1ccc(Cn2nnnc2C(c2cccs2)N2CCSCC2)cc1` (stereo unspecified), the Potency is inactive: > 76.9 µM.

`O=C(c1ccccc1NS(=O)(=O)c1ccc(Br)s1)N1CCOCC1`: the Potency was inactive: > 76.9 µM. In the case of `C/C(Cl)=C/Cn1c(=O)c2c(nc(Br)n2Cc2ccccc2)n(C)c1=O`, the Potency is inactive: > 76.9 µM. As to `CCN1CCN(C(c2ccccc2OC)c2nnnn2C2CCCCC2)CC1` (stereo unspecified), the Potency was inactive: > 76.9 µM. For the compound `Cc1oc(-c2ccc(Cl)cc2)nc1CN1CCCC(C(=O)N2CCc3ccccc32)C1` (stereo unspecified), the Potency was inactive: > 76.9 µM. `O=C(CSc1nnc(-c2ccncc2)n1Cc1ccco1)OC1CCCCC1`: the Potency is inactive: > 76.9 µM. `O=C(NCC1CCCO1)c1sc(=S)n2c1[nH]c(=O)c1ccc(C(=O)N3CCCCC3)cc12` (stereo unspecified): the Potency is inactive: > 76.9 µM. `COC(=O)c1cc(OC)c(OC)c(OC)c1N`: the Potency was inactive: > 76.9 µM. With `O=C(NCc1cccnc1)c1ccc(COc2ccccc2Br)o1`, the Potency was inactive: > 76.9 µM. Turning to `CCC1(C)Cc2nc3sc(C(=O)O)c(N)c3cc2CO1` (stereo unspecified), the Potency is inactive: > 76.9 µM. In the case of `CCS(=O)(=O)C(=C1NCCO1)S(=O)(=O)CC`, the Potency is inactive: > 76.9 µM. On to `Cc1cc(N)n(-c2nc(-c3cccnc3)nc3ccccc23)n1`, for which the Potency is inactive: > 76.9 µM.
